Measured values as given in PubChem BioAssay AID588855 (National Center for Advancing Translational Sciences (NCATS), 2011).
“And” between values parts separate entries of the source, which are not always exact repeats. Equal entries are not always repeated. The campaign covered roughly 410,000 compounds. About 5,000 (1.2%) were called active. The shares of active, inactive and inconclusive entries below differ from those in the screen. Calls come from the whole dose curve; as a rule, active = well fitted inhibition curve with a large enough effect; inconclusive = small, poorly fitted or top-dose-only effect; inactive = no such curve, though single readings can be large or run the other way. Potencies beside an inconclusive call are fits to weak or partial responses and may not hold up.

Assay: qHTS for Inhibitors of TGF-b; note: nearly all actives have a fitted effect of over 65% in size
Details: HepG2 CAGA-GFP TGF-b/SMAD3 reporter, GFP fluorescence, 18 h, TGF-beta stimulated, 500 pg/mL final; series mostly up to 46.1 µM
How it was run: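 TGF-beta reporter screen: HEPG2 CAGA-GFP, 1% FBS, 500 pg/mL TGF-beta final, 18 h; per-cell GFP summed per well; curves fitted and categorized by class.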
Potency is the fitted concentration of half-maximal effect; tags give direction and shape of the fitted curve.

Row | Structure (SMILES) | Potency
1 | Cc1ccc(S(=O)(=O)N2CN(Cc3ccco3)c3nc4ccccc4nc32)cc1C | inconclusive: 6.31 µM [inhibitor, single point]
2 | Nc1ccc(Oc2ncccn2)cc1 | inconclusive: 22.4 µM [inhibitor, single point]
3 | Cc1ccc(C(=O)c2c3ccc([N+](=O)[O-])cc3[n+]([O-])n2CCC(N)=O)cc1 | inconclusive: 28.2 µM [inhibitor, partial curve, poor fit]
4 | CCOC(=O)[C@H]1[C@H]2COc3ccc(Br)cc3[C@@H]2N2C(=O)CN(Cc3ccc(Cl)cc3)C(=O)[C@@]12C | inactive
5 | COc1ccccc1NC(=O)Nc1nc(C(N)Cc2ccccc2)cs1 (stereo not given) | inconclusive: 35.5 µM [inhibitor, single point]
6 | CCN(CC)c1ncnc2c1ncn2[C@H]1CN(Cc2cccnc2)C[C@@H](CO)O1 | inactive
7 | O=C(N/N=C/c1ccco1)C1(O)c2ccccc2-c2ccccc21 | inactive
8 | CN(CC(=O)NCC(=O)Nc1ccc(F)c(F)c1F)C1CCS(=O)(=O)C1 (stereo not given) | inactive
9 | CCOc1ccccc1CNC(=O)Cn1nc(C)c2c(C)n(-c3ccc(C)cc3)nc2c1=O | active: 5.01 µM
10 | COc1cc(OC)cc(C(=O)N/N=C/c2ccc(OC)c(COc3ccc(F)cc3)c2)c1 | inconclusive: 10 µM [inhibitor, partial curve]
11 | COC(=O)[C@@]1(C)[C@H]2C(=O)N(C)C(=O)[C@H]2[C@H]2CN=C(SCc3ccccc3)N21 | inconclusive: 2 µM [inhibitor, partial curve, poor fit]
12 | O=[N+]([O-])c1ccc(NNC(=S)Nc2ccc(F)cc2)cc1 | inconclusive: 22.4 µM [inhibitor, single point]
13 | C/C(=N\NC(=S)NCc1ccccc1)c1ccc2ccccc2c1OC(F)F | inconclusive: 35.5 µM [inhibitor, single point]
14 | CCc1ccc(C2=NN(CCC(=O)NC3CCCCCC3)C(=O)CC2)cc1 | inconclusive: 22.4 µM [inhibitor, single point]
15 | O=C(Nc1cccc(S(=O)(=O)N2CCCCC2)c1)C1CC(=O)N(c2ccc3c(c2)OCCO3)C1 (stereo not given) | inconclusive: 22.4 µM [inhibitor, single point]
16 | C#CCN(CC=C)C(=O)c1ccc(OC2CCN(S(=O)(=O)N(C)C)CC2)cc1 | inconclusive: 5.01 µM [inhibitor, partial curve, poor fit]
17 | Cc1cc2nc(N3C(=O)CNC3=S)sc2cc1C | inconclusive: 35.5 µM [inhibitor, single point]
18 | COc1ccc2ccccc2c1/C=N/NC(=O)c1cccc([N+](=O)[O-])c1 | inactive
19 | Cc1c(C(=O)Nc2cccc(S(=O)(=O)N3CCOCC3)c2)oc2ccc(Br)cc12 | inactive
20 | CC(=O)c1ccc(NC(=O)CSc2nc(=O)n(Cc3ccccn3)c3c2CCC3)cc1 | inconclusive: 3.16 µM [inhibitor, full curve, poor fit]
21 | COc1ccc(NC(=O)c2c(F)cccc2F)cc1S(=O)(=O)Nc1ccc(Br)cc1 | inconclusive: 35.5 µM [inhibitor, single point]
22 | CCOc1cc(/C=C/c2ccc3cccc([N+](=O)[O-])c3n2)ccc1OCC(=O)N(C)C | inactive

Row | Structure (SMILES) | Potency
23 | COc1cc(-c2[nH]ncc2CN2CCc3sccc3C2)cc(OC)c1OC | inconclusive: 35.5 µM [inhibitor, single point]
24 | CCn1c(Cc2ccccc2)n[nH]c1=S | inactive
25 | C/C(=N\NC(=O)c1cc(-c2cccs2)nc2ccccc12)c1ccccn1 | inconclusive: 2.24 µM [inhibitor, partial curve, poor fit]
26 | COc1ccc([C@@H]2[C@H]3CN(C(C)=O)CC=C3C(C#N)=C(N)C2(C#N)C#N)c2ccccc12 | inconclusive: 15.8 µM [inhibitor, single point]
27 | Cc1ccc(-c2cc(O)cc3sc(=O)oc23)cc1C | inconclusive: 35.5 µM [inhibitor, single point]
28 | COc1cccc(N2CCN(C(=O)c3cnn(-c4ccccc4Cl)c3C3CCN(C(=O)OC(C)(C)C)CC3)CC2)c1 | inconclusive: 14.1 µM [inhibitor, single point]
29 | CCCCc1ccc(NS(=O)(=O)c2cc3c4c(c2)CC(=O)N4CCC3)cc1 | inconclusive: 11.2 µM [inhibitor, partial curve, poor fit]
30 | N#Cc1ccc(/C=C/C(=O)c2cccnc2)cc1 | inconclusive: 35.5 µM [inhibitor, single point]
31 | CCCCN(CCCC)S(=O)(=O)c1ccc(NS(=O)(=O)c2ccc(NC(C)=O)cc2)cc1 | inconclusive: 25.1 µM [inhibitor, single point]
32 | O=C(NCCCN1CCCCCC1)c1ccc2c(Cl)c3c(nc2c1)CCCC3 | inconclusive: 35.5 µM [inhibitor, single point]
33 | Cc1cc(Cl)ccc1C(=O)C1CCCN(C(=O)c2ccc3ncccc3c2)C1 (stereo not given) | inconclusive: 22.4 µM [inhibitor, single point]
34 | C=CCN1CCN(C(=O)c2cc3c(s2)CCC(CC)C3)CC1 (stereo not given) | inactive
35 | CCCCCCCCCSc1n[nH]c(N)n1 | inconclusive: 3.16 µM [inhibitor, single point]
36 | Cc1ccc(C)c(NC(=S)NCCc2c[nH]c3ccccc23)c1 | inconclusive: 11.2 µM [inhibitor, partial curve]
37 | FC(F)(F)c1cnc(N2CCCN(C(=S)Nc3ccccc3)CC2)c(Cl)c1 | inconclusive: 22.4 µM [inhibitor, single point]
38 | CC1(c2ccccc2)NC(=O)N(CC(=O)Nc2ccc(N3CCOCC3)cc2N2CCOCC2)C1=O (stereo not given) | inactive
39 | NC(=O)CC(NC(=O)c1ccccc1)c1ccc(N2CCN(c3ccc(F)cc3)CC2)c([N+](=O)[O-])c1 (stereo not given) | inconclusive: 7.08 µM [inhibitor, partial curve, poor fit]
40 | CCN1C(=O)/C(=C\c2ccncc2)SC1=Nc1ccc(C)c(C)c1 | inconclusive: 31.6 µM [inhibitor, single point]
41 | Cn1c(=O)c2c(n3cnnc13)-c1ccccc1CC21CCCC1 | inactive
42 | COc1ccccc1N1CCN(C(=O)C2CCN(S(=O)(=O)c3cn(C)cn3)CC2)CC1 | inconclusive: 5.62 µM [inhibitor, single point]
43 | CC(C)(C)OC(=O)NCc1ccc(NC(=O)c2nc[nH]c2C(=O)N[C@@H](Cc2ccccc2)C(=O)OCc2ccccc2)cc1 | inconclusive: 0.316 µM [inhibitor, full curve, poor fit]
44 | CCOC(=O)C1CCN(C(=O)COC(=O)c2ccccc2C(=O)c2ccc(Cl)cc2)CC1 | inactive

Row | Structure (SMILES) | Potency
45 | O=C(Cn1c(=O)n(Cc2ccco2)c(=O)c2oc3ccccc3c21)Nc1ccccc1 | inconclusive: 6.31 µM [inhibitor, single point]
46 | COC(=O)CCSc1nccn1Cc1ccccc1 | inconclusive: 3.16 µM [inhibitor, partial curve, poor fit]
47 | O=C1C=C(c2ccccc2Oc2ccccc2)C[C@@H](c2ccc(F)cc2)C1 | inconclusive: 22.4 µM [inhibitor, single point]
48 | NC(=O)C1=C[C@H](c2ccc(Br)cc2)C[C@H](OCc2ccc(CO)cc2)O1 | inactive
49 | O=c1oc2ccccc2c(Nc2cccc3ccccc23)c1[N+](=O)[O-] | inconclusive: 15.8 µM [inhibitor, single point]
50 | CCOc1ccc(NC(=O)c2cc3c(C)nc4ccccc4c3o2)cc1 | inactive
51 | CCN(CCCNC(=O)c1cc2c(=O)n(C)c3ccccc3c2s1)c1ccccc1 | inactive
52 | CC(C)C(c1nnnn1C1CCCC1)N1c2ccccc2CC1C (stereo not given) | inactive
53 | CCOC(=O)c1ccc2ncc(C(=O)OCC)c(Nc3ccc(N4CCOCC4)cc3)c2c1 | inconclusive: 6.31 µM [inhibitor, full curve]
54 | COc1ccc(C2C(C(=O)c3ccccc3)=C(C)Nc3nc4ccccc4n32)c(OC)c1 (stereo not given) | inconclusive: 14.1 µM [inhibitor, single point]
55 | COc1ccc(CN2CCc3ccc(NC(=O)c4ccncc4)cc3C2)c(F)c1 | inactive
56 | CC(=O)N(C(C)=O)N1C(=O)C2C3c4ccccc4C(c4ccccc43)C2C1=O (stereo not given) | inconclusive: 35.5 µM [inhibitor, single point]
57 | Cc1cc(C)cc(NC(=O)CSc2ccc(-c3cccs3)nn2)c1 | inconclusive: 1.58 µM [inhibitor, full curve, poor fit] and inconclusive: 25.1 µM [inhibitor, single point]
58 | Cc1ccc(S(=O)(=O)N2CCCC(C(=O)NCCc3ccc4c(c3)OCO4)C2)cc1 (stereo not given) | inconclusive: 28.2 µM [inhibitor, single point]
59 | CS(=O)(=O)N(CCc1ccccc1)CC(=O)N1CCN(c2ccc(F)cc2)CC1 | inconclusive: 6.31 µM [inhibitor, single point]
60 | S=C(NCC1CCCO1)Nc1cc(Cl)c(Cl)cc1Cl (stereo not given) | inconclusive: 35.5 µM [inhibitor, single point]
61 | Cc1ccccc1Nc1nn2c(=O)c3ccc(C(=O)NCc4cccs4)cc3nc2s1 | inconclusive: 11.2 µM [inhibitor, single point]
62 | Cc1ccc(N2C(=O)C3C(C2=O)C2C=CC3C23CC3)cc1 (stereo not given) | inconclusive: 35.5 µM [inhibitor, single point]
63 | COC1=C(Nc2ccccc2)C(=O)c2ccccc2C1=O | active: 15.8 µM
64 | Cc1ccc(CNC(=O)CO/N=C/c2ccc(C(C)(C)C)cc2)cc1 | inactive
65 | CCCCc1ccc(-c2nn[nH]n2)nc1 | inactive
